Test results from patent publication US20230272119A1 (MARENGO THERAPEUTICS, published 2023).

Assays:
[1] = biological target: T1, α-IL12β heavy-hCHIg_Hole_Cys (SEQ ID NO: 170) (Homo sapiens (Human), UniProt P0DOX5 1-449 = IgG part); test: KappaSelect/LambdaFabSelect resin analysis of multispecific molecule 9, reduced gel
T1 construct: full heavy chain, human Fc hole; Fab analysed after papain cleavage in the MS assay; germline VH3-33*01; also called HCP1 of multispecific molecules 3 and 9

[2] = biological target: T2, α-IL12β heavy-hCHIg (SEQ ID NO: 172) (Homo sapiens (Human), UniProt P0DOX5 1-449 = IgG part); test: KappaSelect/LambdaFabSelect resin analysis of multispecific molecule 8, reduced gel
T2 construct: full heavy chain, human Fc without knobs-into-holes mutations; germline VH3-33*01; also called HCP1 of multispecific molecule 8

binding result [1]: binds | binding result [2]: binds
B1: α-IL12β light-hCLIg_vl-IL2 (SEQ ID NO: 173) (other)
light: QSVLTQPPSVSGAPGQRVTISCSGSRSNIGSNTVKWYQQLPGTAPKLLIYYNDQRPSGVPDRFSGSKSGTSASLAITGLQAEDEADYYCQSYDRYTHPALLFGTGTKVTVLGQPKANPTVTLFPPSSEELQANKATLVCLISDFYPGAVTVAWKADGSPVKAGVETTKPSKQSNNKYAASSYLSLTPEQWKSHRSYSCQVTHEGSTVEKTVAPTECSGGGGSGGGGSGGGGS[about 150 residues not printed]
notes: lambda light chain with C-terminal IL-2 fusion; germline Vl1-44*01; also called LLCP of multispecific molecules 8 and 9
